According to PubChem BioAssay AID540317 (National Center for Advancing Translational Sciences (NCATS), 2011):
Out of some 390,000 compounds screened, about 2,200 (0.56%) were called active. Inconclusive means that the source gave no clear call. Such entries were picked first, then a sample of the others. Calls follow the shape of the dose curve; as a rule, active = well fitted inhibition curve with a large enough effect; inconclusive = small, poorly fitted or top-dose-only effect; inactive = no such curve, though single readings can be large or run the other way. Potencies beside an inconclusive call are fits to weak or partial responses and may not hold up.

Biological target: Chromobox protein homolog 1 (Homo sapiens) (UniProt P83916)
UniProt P83916, sequence (P83916 whole entry, looked up): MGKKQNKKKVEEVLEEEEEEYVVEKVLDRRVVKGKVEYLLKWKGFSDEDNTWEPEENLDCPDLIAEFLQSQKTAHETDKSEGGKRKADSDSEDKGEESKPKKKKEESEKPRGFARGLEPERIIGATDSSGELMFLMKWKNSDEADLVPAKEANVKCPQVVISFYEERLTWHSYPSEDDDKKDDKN
Experiment: HTS for Inhibitors of HP1-beta Chromodomain Interactions with Methylated Histone Tails; also: nearly all actives have a fitted effect of over 70% in size
Details: AlphaScreen HP1-beta / biotin-H3K9me3 peptide binding; series mostly up to 114 µM; activity change, negative = inhibition: at the top concentration
How it was run: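 HP1-beta protein (50 nM final) preincubated 30 min at room temperature with biotinylated H3(1-18)K9me3 peptide (50 nM) in PBS pH 7.4, 0.01% Tween-20, then compound added for 30 min. AlphaScreen streptavidin donor/nickel chelate acceptor beads (10 ug/mL final), 30 min dark, luminescence read.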
Potency is read from the fitted curve at half-maximal effect; tags tell the direction and shape of the fitted curve.

| SMILES | Potency | activity change, negative = inhibition |
| --- | --- | --- |
| O=C(N/N=C/c1cc(Cl)cc([N+](=O)[O-])c1O)c1ccccc1NS(=O)(=O)c1cccs1 | inconclusive: 10 µM [inhibitor, full curve] | – |
| N#Cc1nc(-c2ccc(F)cc2)oc1N1CCCC1 | inconclusive: 25.1 µM [inhibitor, full curve, poor fit] | – |
| CCOc1ccc(NC(=O)CNC(=O)c2cccs2)cc1 | – | inactive: 32.6% |
| O=C(CN1C(=O)CCc2cc(S(=O)(=O)N3CCOCC3)ccc21)NCc1ccccc1Cl | – | inactive: 30.9% |
| Cc1ccc(C(c2c(C)nn(-c3ccccc3)c2N)c2c(C)nn(-c3ccccc3)c2N)cc1 | inconclusive: 31.6 µM [inhibitor, single point] | – |
| COc1cc(Cl)c(NC2=CC(=O)C(=O)c3ccccc32)c(OC)c1 | inconclusive: 14.1 µM [inhibitor, full curve] | – |
| CCOc1ccc(CCNC(=O)COC(=O)CCC(=O)c2cccs2)cc1OCC | inconclusive: 89.1 µM [inhibitor, single point] | – |
| COc1ccccc1N1C(=O)CC(Sc2n[nH]c(-c3cccc(C)c3)n2)C1=O (configuration not stated) | inconclusive: 20 µM [inhibitor, full curve, poor fit] | – |
| O=c1cc(-c2ccccc2)[nH]n1-c1ccc([N+](=O)[O-])cc1 | inconclusive: 79.4 µM [inhibitor, single point] | – |
| Cc1ccc(CNC(=O)c2ccc(N3CCC4(CC3)CC(c3ccccc3)=NO4)c([N+](=O)[O-])c2)cc1 | inconclusive: 17.8 µM [inhibitor, partial curve, poor fit] | – |
| O=C(CSc1nc2cccnc2n1Cc1ccccc1)N1CCCC1 | inconclusive: 39.8 µM [inhibitor, single point] | – |
| O=C(O)CCSc1nc2ccccc2s1 | – | inactive: 42.5% |
| N#CC1(NC(=O)COC(=O)c2cc(O)c3ccccc3c2O)CCCCC1 | inconclusive: 50.1 µM [inhibitor, partial curve, poor fit] | – |
| NC(=S)Nc1cccc2cn[nH]c12 | – | inactive: 19.6% |
| CCN1CCN(CC(=O)Nc2cc(S(=O)(=O)N3CCCCC3)ccc2Cl)CC1 | inconclusive: 50.1 µM [inhibitor, partial curve, poor fit] | – |
| O=C(c1ccc2c(=O)n3c(nc2c1)CCCCC3)N1CCc2ccccc21 | – | inactive: 29.1% |
| C=CC[n+]1c(C)csc1Nc1ccc(C)cc1 | inconclusive: 44.7 µM [inhibitor, partial curve] | – |
| COc1ccccc1CNCC(=O)Nc1ccccc1-n1cccc1 | inconclusive: 44.7 µM [inhibitor, partial curve] | – |
| CCCCCC(=O)O/N=C(\C)c1ccn(S(=O)(=O)c2ccccc2)c1 | – | inactive: 54.9% |
| COCCNC(=O)c1ccc(-c2nc(CN3CCc4ccccc43)c(C)o2)cc1 | – | inactive: 10.5% [at 57 µM] |
| CCOCCCNC(=S)N1CCN(Cc2ccc3c(c2)OCO3)CC1 | inconclusive: 15.8 µM [inhibitor, full curve] | – |
| O=[N+]([O-])c1ccccc1S(=O)(=O)N1CCN(CC2CC=CCC2)CC1 (configuration not stated) | inconclusive: 14.1 µM [inhibitor, full curve, poor fit] | – |
| Cn1cccc1/C=N/N1CCN(Cc2ccccc2Cl)CC1 | inconclusive: 50.1 µM [inhibitor, partial curve, poor fit] | – |

| SMILES | Potency | activity change, negative = inhibition |
| --- | --- | --- |
| O=C(c1cnc(N2CCCCC2)c2ccccc12)N1CCN(c2cccc(Cl)c2)CC1 | – | inactive: 18.8% [at 57 µM] |
| CCCCNc1sc(S(=O)(=O)CCC)nc1S(=O)(=O)c1ccc(C)cc1 | – | inactive: 54.7% |
| O=C(Oc1cccc(C(=S)N2CCOCC2)c1)c1ccc([N+](=O)[O-])cc1 | inconclusive: 50.1 µM [inhibitor, partial curve] | – |
| COc1cc(/C=N/NC(=S)NCCc2ccccc2)cc(OC)c1OC | – | inactive: 10.7% |
| CCN(CC)CCn1c(-c2ccccc2)csc1=Nc1ccccc1 | inconclusive: 15.8 µM [inhibitor, full curve] | – |
| Cc1cccc(N=C2NC(=O)/C(=C/C=C/c3ccco3)S2)c1C | active: 44.7 µM | – |
| CN(C)/C=C1/C=C(c2ccccc2)OC1=O | – | inactive: -15.2% |
| COC1=CC(=O)C(C2CC(=O)c3c(O)cc(O)cc3O2)=CC1=O (configuration not stated) | inconclusive: 44.7 µM [inhibitor, partial curve, poor fit] | – |
| CSc1ccc(/C=C/c2cc(=O)c3ccccc3[nH]2)cc1 | inconclusive: 39.8 µM [inhibitor, single point] | – |
| Nc1nccc(-c2nn(-c3ccc(Cl)cc3)ccc2=O)n1 | – | inactive: 45% |
| O=C(NC(=S)Nc1ccc(S(=O)(=O)Nc2nccs2)cc1)c1ccc(F)c(F)c1 | inconclusive: 39.8 µM [inhibitor, partial curve] | – |
| COc1cc2c(cc1OC)-c1cc(Nc3ccc(C(=O)O)cc3)nc(=O)n1CC2 | inconclusive: 79.4 µM [inhibitor, single point] | – |
| CN(C)c1cccc(C(=O)Nc2nc3ccccc3[nH]2)c1 | inconclusive: 25.1 µM [inhibitor, partial curve, poor fit] | – |
| Cc1ccc(C(C)C)cc1OCC(=O)Nc1ccc(-n2cnnn2)cc1 | – | inactive: 35.7% |
| O=C(N/N=C/c1ccncc1)c1ccc(NC(=O)c2cccc(Cl)c2)cc1 | inconclusive: 31.6 µM [inhibitor, full curve] | – |
| CC1CCCC2(C1)NC(=S)c1c(sc3c1CCCC3)N2 (configuration not stated) | inconclusive: 17.8 µM [inhibitor, full curve] | – |
| Oc1c(Br)cc(C2N=C(c3ccccc3Cl)NO2)cc1Br (configuration not stated) | inconclusive: 89.1 µM [inhibitor, partial curve, poor fit] | – |
| C=CCN=c1scc(-c2ccccc2)n1/N=C/c1ccccn1 | active: 28.2 µM | – |
| O[C@@H]1COC(Nc2ccc(N=Nc3ccccc3)cc2)C[C@@H]1O (some centres not stated) | inconclusive: 56.2 µM [inhibitor, single point] | – |
| CC1=NC(=O)C(N=Nc2cccc(O)c2)N1c1ccccc1 (configuration not stated) | inconclusive: 50.1 µM [inhibitor, partial curve, poor fit] | – |
| CCS(=O)(=O)N1CCN(Cc2c[nH]c3ccccc23)CC1 | inconclusive: 44.7 µM [inhibitor, partial curve] | – |
| COc1ccc(-c2csc(Nc3ccc(C)cn3)n2)cc1OC | inconclusive: 56.2 µM [inhibitor, partial curve, poor fit] | – |
| COc1ccc(OC)c(-c2csc(NC(=O)CN3C(=O)C4CCCCC4C3=O)n2)c1 (configuration not stated) | inconclusive: 70.8 µM [inhibitor, partial curve, poor fit] | – |

| SMILES | Potency | activity change, negative = inhibition |
| --- | --- | --- |
| Cc1ccc(-c2nc(CS(=O)(=O)CC(=O)NCc3ccc(Cl)cc3)c(C)o2)cc1 | – | inactive: 19% |
| Cc1cc(-c2nsc(=O)o2)c(S(C)(=O)=O)s1 | inconclusive: 11.2 µM [inhibitor, full curve] | – |
| Cc1cccc(-n2c(Cc3ccccc3)nnc2SCc2ccc([N+](=O)[O-])cc2)c1 | inconclusive: 35.5 µM [inhibitor, single point] | – |
| COc1ccc2[nH]c(C)c(CCNC(=S)Nc3ccccc3C)c2c1 | inconclusive: 50.1 µM [inhibitor, partial curve, poor fit] | – |
| COc1ccc(S(=O)(=O)N2CCOCC2)cc1N=Nc1sc(N)nc1-c1ccccc1 | inconclusive: 3.16 µM [inhibitor, full curve] | – |
| O=C(N/N=C1\CC(c2ccccc2)Oc2ccccc21)c1ccc(O)cc1 (configuration not stated) | inconclusive: 79.4 µM [inhibitor, partial curve] | – |
| CCCCNC(=O)COC(=O)c1c2c(nc3ccccc13)CCC2 | inconclusive: 79.4 µM [inhibitor, single point] | – |
| CCN1C(=O)/C(=C\c2ccc3c(c2)OCO3)C(C(=O)OC)=C1C | inconclusive: 14.1 µM [inhibitor, full curve, poor fit] | – |
| CCc1c(C)sc2c1CCN(C(=O)Nc1cc(Cl)c(OC)cc1OC)C2c1ccccc1 (configuration not stated) | inconclusive: 14.1 µM [inhibitor, partial curve] | – |
| c1coc(-c2nn3c(Cn4nnc5ccccc54)nnc3s2)c1 | – | inactive: -24.8% |
| Cc1ccc(C2(C)NC(=O)N(CC(=O)NC(C)c3ccccc3)C2=O)cc1 (configuration not stated) | – | inactive: 23.4% |
| COc1ccc(NC(=O)CN2CCCCC2)cc1S(=O)(=O)N1CCCCC1 | inconclusive: 56.2 µM [inhibitor, partial curve, poor fit] | – |
| CN(CC(=O)Nc1ccccc1Cl)C(=O)CSc1ncc(C(F)(F)F)cc1Cl | inconclusive: 89.1 µM [inhibitor, single point] | – |
| O=[N+]([O-])c1cc(Br)c(Nc2ccccc2)c([N+](=O)[O-])c1 | inconclusive: 14.1 µM [inhibitor, full curve, poor fit] | – |
| CN(C)S(=O)(=O)c1cccc(N=C2NN=C(c3ccccc3)CS2)c1 | inconclusive: 15.8 µM [inhibitor, full curve] | – |
| O=C(O)CSc1nnnn1-c1ccccc1 | inconclusive: 39.8 µM [inhibitor, single point] | – |
| Cc1c(C(=O)N(Cc2ccc(N(C)C)cc2)Cc2ccco2)oc2cc(Br)ccc12 | inconclusive: 15.8 µM [inhibitor, full curve] | – |
| Cn1cc(C(=O)NCCc2ccccc2)c(=O)c2cc(S(=O)(=O)N3CCCCCC3)ccc21 | – | inactive: 26% |
| Clc1cccc(CN2CCCCCC2)c1Cl | inconclusive: 56.2 µM [inhibitor, single point] | – |
| C=CCNCCCCOc1cccc(Br)c1 | inconclusive: 15.8 µM [inhibitor, full curve, poor fit] | – |
| CCOc1ccc(NCc2nnc(SCc3ccc(Cl)cc3)n2-c2ccccc2)cc1 | inconclusive: 3.16 µM [inhibitor, partial curve, poor fit] | – |
